Among all 39,000 compounds or so, about 220 (0.56%) showed activity. The list shows a part of the results.

We go through 60 molecules from the supplement of paper PMC9446081.
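Also: static incubation at 37 °C against the wild-type strain, values averaged over two biological replicates.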

The subject of the test is Escherichia coli K-12 BW25113. Briefly: relative growth (OD600 normalised to plate interquartile mean) (fraction); higher = less growth inhibition, active = 0.2 or less. Particulars: 50 µM; LB; incubation time: overnight (16-24 h).
For `C1CC1c1noc(C2CNC2)n1`, the relative growth is inactive: 0.974.

As to `Cc1noc(C)c1NC(=O)N(C)C[C@H]1OCCCC[C@H](C)Oc2ccc(NC(=O)CCC(F)(F)F)cc2C(=O)N([C@@H](C)CO)C[C@H]1C`, the relative growth is inactive: 1.01.

On to `Cc1ccccc1S(=O)(=O)N1C[C@@H](O)COC[C@@H]2O[C@@H](CC(=O)N3CCOCC3)CC[C@H]21`, for which the relative growth is inactive: 1.01.

For `CC1(C)[C@@H](OC(=O)CCC(=O)O)CC[C@]2(C)[C@H]3C(=O)C=C4[C@@H]5C[C@@](C)(C(=O)O)CC[C@]5(C)CC[C@@]4(C)[C@]3(C)CC[C@@H]12`, the relative growth was inactive: 1.02.

For the molecule `COCCOC(=O)N1C(=O)[C@@]2(c3cc(C#Cc4ccc(OC)cc4)ccc31)[C@H](c1ccc(OCCO)cc1)N1[C@H](c3ccccc3)[C@H](c3ccccc3)OC(=O)[C@H]1[C@@H]2C(=O)NC[C@H](O)c1ccccc1`, the relative growth was inactive: 1.04.

In the case of `C[C@H]1CN([C@@H](C)CO)C(=O)c2cc(NC(=O)Nc3ccc(F)cc3)ccc2O[C@H]1CN(C)Cc1ccc(C(=O)Nc2ccccc2N)cc1`, the relative growth was inactive: 1.01.

Regarding `O=C1[O][Bi]([OH])[O]c2ccccc21`, the relative growth is inactive: 1.05.

Take `C[C@@H]1CN([C@H](C)CO)C(=O)c2cc(NC(=O)CCCCCC(=O)Nc3ccccc3N)ccc2O[C@@H]1CN(C)Cc1ccccc1`: the relative growth was inactive: 1.03.

`C[C@@H]1CCCCO[C@H](CN(C)S(=O)(=O)c2ccc(F)cc2)[C@H](C)CN([C@@H](C)CO)C(=O)c2cc(NC(=O)Nc3cccc4ccccc34)ccc2O1`: the relative growth is inactive: 0.985.

Consider `COc1ccc(CN(C)C[C@@H]2Oc3c(NC(=O)c4cc(C)nn4C)cccc3C(=O)N([C@@H](C)CO)C[C@H]2C)cc1`, for which the relative growth was inactive: 0.957.

Consider `Cc1onc(-c2ccccc2)c1CN`, for which the relative growth is inactive: 0.978.

Take `CS(=O)(=O)O.OC(CCN1CCCCC1)(c1ccccc1)c1ccccc1`: the relative growth was inactive: 1.12.

As to `Cc1ccc(S(=O)(=O)Nc2cccc3c2O[C@H](CN(C)CC2CC2)[C@@H](C)CN([C@@H](C)CO)C3=O)cc1`, the relative growth was inactive: 0.993.

With `C[C@H](CO)N1C[C@H](C)[C@H](CN(C)C)OCCCC[C@H](C)Oc2ccc(NS(=O)(=O)c3cn(C)cn3)cc2C1=O`, the relative growth was inactive: 0.977.

As to `COc1ccc(NC(=O)Nc2ccc3c(c2)[C@H]2C[C@@H](CC(=O)NCc4ccccn4)O[C@@H](CO)[C@H]2O3)cc1`, the relative growth was inactive: 0.994.

For the molecule `Cc1noc(C)c1S(=O)(=O)Nc1ccc2c(c1)CC(=O)N([C@H](C)CO)C[C@@H](C)[C@@H](CN(C)Cc1ccc(C(=O)O)cc1)O2`, the relative growth was inactive: 0.985.

On to `O=C(Cn1cc(COc2ccc(-n3cccc3)cc2)nn1)NS(=O)(=O)c1ccccc1C(F)(F)F`, for which the relative growth is inactive: 1.

On to `CS(=O)(=O)N1CCN2C[C@H](C(=O)O)CN(Cc3ccco3)C[C@@H]2C1`, for which the relative growth is inactive: 1.01.

For the molecule `C[C@@H]1CCCCO[C@H](CN(C)Cc2ccncc2)[C@H](C)CN([C@@H](C)CO)C(=O)c2cc(NC(=O)Nc3ccccc3)ccc2O1`, the relative growth was inactive: 0.98.

Consider `C=CCOC(=O)[C@@H]1[C@H]2C(=O)O[C@H](c3ccccc3)[C@H](c3ccccc3)N2[C@H](c2ccc(OCCOC(=O)[C@H]3C[C@H]4C(=O)N[C@@H](CC(C)C)C(=O)N4[C@H]3c3ccc(O)cc3)cc2)[C@@]12C(=O)Nc1ccc(I)cc12`, for which the relative growth is inactive: 1.06.

For the molecule `C[C@H]1CN([C@@H](C)CO)C(=O)c2cc(NS(=O)(=O)c3ccc(Cl)cc3)ccc2O[C@@H]1CN(C)C(=O)Nc1cccc2ccccc12`, the relative growth was inactive: 0.991.

`C[C@H](CO)N1C[C@H](C)[C@H](CN(C)Cc2ccc(Oc3ccccc3)cc2)Oc2ccc(NC(=O)CCCCCC(=O)Nc3ccccc3N)cc2CC1=O`: the relative growth is inactive: 0.94.

Turning to `C[C@@H]1CN([C@@H](C)CO)C(=O)Cc2cc(NC(=O)CCN3CCOCC3)ccc2O[C@H]1CN(C)C(=O)Nc1ccccc1`, the relative growth was inactive: 0.96.

On to `CC(C)NC(=O)N(C)C[C@@H]1Oc2ccc(NC(=O)CCCN(C)C)cc2C(=O)N([C@H](C)CO)C[C@@H]1C`, for which the relative growth was inactive: 0.948.

With `C[C@H]1OC(=O)CC[C@@H](O)/C=C/[C@@H](O)[C@@H]1O`, the relative growth was inactive: 0.988.

Regarding `COCC#Cc1ccc2c(c1)O[C@@H](CN(C)C(=O)Nc1ccc(OC)cc1)[C@@H](C)CN([C@@H](C)CO)S2(=O)=O`, the relative growth was inactive: 1.03.

Regarding `C[C@@H]1CCCCO[C@H](CN(C)S(=O)(=O)c2ccc(Cl)cc2)[C@@H](C)CN([C@H](C)CO)C(=O)c2cc(NC(=O)NC3CCCCC3)ccc2O1`, the relative growth was inactive: 0.975.

On to `C[C@@H]1CN([C@H](C)CO)C(=O)c2cc(-c3cccnc3)cnc2O[C@@H]1CN(C)Cc1ccc(Oc2ccccc2)cc1`, for which the relative growth was inactive: 1.01.

Take `COc1ccc(S(=O)(=O)Nc2ccc3c(c2)C(=O)N([C@H](C)CO)C[C@H](C)[C@@H](CN(C)Cc2ccc(C(=O)O)cc2)OCCCC[C@H](C)O3)cc1`: the relative growth is inactive: 0.992.

`COc1ccccc1CNC(=O)C[C@@H]1CC[C@@H]2[C@H](COC[C@@H](O)CN2C(=O)Nc2ccc(Cl)cc2)O1`: the relative growth was inactive: 0.883.

As for `C[C@H]1CN([C@@H](C)CO)C(=O)c2cccc(NS(=O)(=O)c3ccc(F)cc3)c2O[C@H]1CN(C)CC1CC1`, the relative growth is inactive: 0.994.

Take `Cc1noc(C)c1S(=O)(=O)Nc1ccc2c(c1)C(=O)N([C@H](C)CO)C[C@@H](C)[C@@H](CN(C)Cc1ccc(Cl)c(Cl)c1)OCCCC[C@H](C)O2`: the relative growth was inactive: 0.964.

On to `C[C@H](CO)N1C[C@H](C)[C@@H](CN(C)Cc2ccc3c(c2)OCO3)Oc2ncc(Br)cc2C1=O`, for which the relative growth is inactive: 1.05.

Take `C[C@@H]1CN([C@H](C)CO)C(=O)Cc2cc(NC(=O)Cn3cnnn3)ccc2O[C@H]1CN(C)S(C)(=O)=O`: the relative growth was inactive: 1.

As for `C[C@H](CO)N1C[C@H](C)[C@H](CN(C)Cc2ccc(C(=O)Nc3ccccc3N)cc2)Oc2c(NC(=O)NC3CCCCC3)cccc2C1=O`, the relative growth is inactive: 1.01.

In the case of `C[C@@H]1CN([C@@H](C)CO)C(=O)c2cc(C#CC(C)(C)O)cnc2O[C@H]1CN(C)C(=O)CN(C)C`, the relative growth is inactive: 0.986.

As to `Cn1cnc(S(=O)(=O)N[C@@H]2CC[C@H](CC(=O)NCC3CC3)O[C@H]2CO)c1`, the relative growth was inactive: 0.932.

In the case of `COc1ccc(CSCCN)cc1Cl`, the relative growth is inactive: 1.01.

As to `CC(C)NC(=O)Nc1cccc2c1O[C@@H](CN(C)S(=O)(=O)c1ccccc1)[C@@H](C)CN([C@@H](C)CO)C2=O`, the relative growth is inactive: 0.993.

Turning to `COc1ccc(NC(=O)N(C)C[C@H]2OCCCC[C@@H](C)Oc3ccc(NS(=O)(=O)c4c(C)noc4C)cc3C(=O)N([C@H](C)CO)C[C@H]2C)cc1`, the relative growth is inactive: 0.996.

As for `COc1ccc(S(=O)(=O)N2C[C@@H](O)COC[C@H]3O[C@@H](CC(=O)NCCN4CCCCC4)CC[C@@H]32)cc1`, the relative growth is inactive: 1.01.

`COc1ccc(NC(=O)Nc2ccc3c(c2)C(=O)N([C@@H](C)CO)C[C@@H](C)[C@@H](CN(C)S(=O)(=O)c2ccc(Cl)cc2)OCCCC[C@@H](C)O3)cc1`: the relative growth was inactive: 1.03.

Consider `CS(=O)(=O)c1cc(F)ccc1N`, for which the relative growth is inactive: 0.965.

On to `C[C@@H]1CCCCO[C@@H](CN(C)Cc2ccc(C(F)(F)F)cc2)[C@H](C)CN([C@@H](C)CO)C(=O)c2cc(NC(=O)c3ccncc3)ccc2O1`, for which the relative growth is inactive: 0.86.

As to `CCCNC(=O)N(C)c1nncnc1C(=O)NC`, the relative growth is inactive: 1.01.

Consider `COC(=O)c1c(CC[C@@H](COC(=O)NCCCCCC(=O)NO)NC(=O)N[C@@H](Cc2ccccc2)Cn2cc(-c3ccccc3)nn2)oc(C(=O)N2CCOCC2)c1C(=O)OC`, for which the relative growth was inactive: 1.02.

Turning to `C[C@@H]1CCCCO[C@@H](CN(C)C(=O)C2CCCCC2)[C@H](C)CN([C@@H](C)CO)C(=O)c2cc(NC(=O)Nc3ccc4c(c3)OCO4)ccc2O1`, the relative growth is inactive: 1.02.

As for `COCC#Cc1ccc2c(c1)O[C@@H](CN(C)Cc1ccccc1F)[C@H](C)CN([C@H](C)CO)S2(=O)=O`, the relative growth is inactive: 1.05.

Turning to `O=C(C[C@@H]1C=C[C@@H](NC(=O)CN2CCOCC2)[C@@H](CO)O1)NCCc1ccncc1`, the relative growth was inactive: 1.

For the molecule `COc1ccc([Si](C)(C)[C@@H]2[C@@H](CCn3cc(CCO)nn3)O[C@]3(C(=O)N(Cc4ccc(N5C(=O)c6cccc7cccc5c67)cc4)c4ccccc43)[C@H]2C)cc1`, the relative growth is inactive: 1.02.

Regarding `COc1ccc(S(=O)(=O)Nc2ccc3c(c2)C(=O)N([C@@H](C)CO)C[C@@H](C)[C@@H](CN(C)S(=O)(=O)c2ccc(Cl)cc2)OCCCC[C@H](C)O3)cc1`, the relative growth is inactive: 1.02.

Turning to `Oc1ccc2c(c1)OCC1(O)Cc3cc(O)c(O)cc3C21` (stereo not given), the relative growth is inactive: 1.11.

Consider `Cc1ncc([N+](=O)[O-])n1C[C@@H](C)O`, for which the relative growth was inactive: 1.03.

With `C[C@@H]1CN([C@@H](C)CO)C(=O)c2cc(C#CC3(O)CCCC3)cnc2O[C@@H]1CN(C)C(=O)C1CCOCC1`, the relative growth is inactive: 0.962.

With `CCCC#Cc1ccc2c(c1)O[C@H](CN(C)Cc1ccc3c(c1)OCO3)[C@@H](C)CN([C@@H](C)CO)S2(=O)=O`, the relative growth was inactive: 0.901.

Regarding `COc1ccccc1CNC(=O)C[C@H]1C[C@@H]2c3cc(NC(=O)c4cccnc4)ccc3O[C@@H]2[C@@H](CO)O1`, the relative growth was inactive: 1.

As to `C[C@H](CO)N1C[C@H](C)[C@H](CN(C)C(=O)Nc2ccc(C(F)(F)F)cc2)OCCCC[C@H](C)Oc2ccc(NC(=O)Nc3ccc(F)cc3)cc2C1=O`, the relative growth is inactive: 0.986.

Turning to `COCC(=O)N1C[C@H](C)[C@@H](OC)CN(C)C(=O)c2ccc(NC(=O)Nc3cccc(F)c3)cc2OC[C@H]1C`, the relative growth was inactive: 0.997.

Turning to `COc1cc(C(=O)NC2CCCNC2)cc(OC)c1OC` (stereo not given), the relative growth is inactive: 1.08.

Consider `CCOC(=O)/C(C#N)=C1/C=CN(C)C=N1`, for which the relative growth is inactive: 0.942.
